Data on 73 sequences can be found in the BET-seq Pho4 binding data (Le et al. 2018).

The list shows a part of the results. The energies were worked out here from pooled read counts, against the library average; single values are noisy.

The target in the assay is T1, Pho4 (S. cerevisiae) (UniProt P07270).
T1 sequence: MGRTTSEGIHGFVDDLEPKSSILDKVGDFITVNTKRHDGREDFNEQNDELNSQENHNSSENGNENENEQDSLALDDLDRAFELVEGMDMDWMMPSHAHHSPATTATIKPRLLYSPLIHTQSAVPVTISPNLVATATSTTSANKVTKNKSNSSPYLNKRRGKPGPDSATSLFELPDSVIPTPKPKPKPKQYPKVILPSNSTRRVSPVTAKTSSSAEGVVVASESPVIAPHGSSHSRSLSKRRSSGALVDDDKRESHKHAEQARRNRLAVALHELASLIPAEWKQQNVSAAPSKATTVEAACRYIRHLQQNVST
Nature of the assay: relative binding free energy (BET-seq); higher = weaker binding. The following applies: reference: library average.
As to AGACTCACGTGGGCTG, the “relative binding free energy” value came to 0.24 kcal/mol.

As for GGAGGCACGTGGGGAC, the “relative binding free energy” value was -0.21 kcal/mol.

For the sequence TTAATCACGTGGCGTT, the “relative binding free energy” value is -0.01 kcal/mol.

Regarding TTGAACACGTGGGAAG, the “relative binding free energy” value was -0.08 kcal/mol.

On to GATAACACGTGGGGAG, for which the “relative binding free energy” value was -0.02 kcal/mol.

With ATTCGCACGTGGGGCG, the “relative binding free energy” value was -0.24 kcal/mol.

Take GGATTCACGTGAAGGG: the “relative binding free energy” value stood at 0.37 kcal/mol.

In the case of CTGGGCACGTGGCTTT, the “relative binding free energy” value is -0.26 kcal/mol.

As to AGTAGCACGTGCCGGT, the “relative binding free energy” value was -0.11 kcal/mol.

For GGTGACACGTGTGTCT, the “relative binding free energy” value was 0.04 kcal/mol.

Take TGTGACACGTGGAGCT: the “relative binding free energy” value was -0.06 kcal/mol.

In the case of TTTACCACGTGTGGGC, the “relative binding free energy” value was determined as 0.05 kcal/mol.

As to ATGGGCACGTGACGGA, the “relative binding free energy” value is -0.14 kcal/mol.

Take TCGTTCACGTGGAGTT: the “relative binding free energy” value amounted to 0.23 kcal/mol.

For TTGAACACGTGGTTAG, the “relative binding free energy” value worked out at 0.11 kcal/mol.

As for ATTTGCACGTGCTGGG, the “relative binding free energy” value was -0.02 kcal/mol.

Regarding TGCGGCACGTGTGGAA, the “relative binding free energy” value is -0.01 kcal/mol.

TTTGTCACGTGAGAGC: the “relative binding free energy” value was 0.38 kcal/mol.

In the case of CGTTTCACGTGATTAG, the “relative binding free energy” value was 0.33 kcal/mol.

Regarding TTTAACACGTGACTTT, the “relative binding free energy” value was found to be 0.13 kcal/mol.

With TAGGACACGTGGGTGA, the “relative binding free energy” value was -0.09 kcal/mol.

Take GGGTGCACGTGCATGT: the “relative binding free energy” value was 0 kcal/mol.

TCTTACACGTGTAAGT: the “relative binding free energy” value is 0.24 kcal/mol.

On to GTATACACGTGCAGGG, for which the “relative binding free energy” value is -0.06 kcal/mol.

As to GAGTTCACGTGGAAGT, the “relative binding free energy” value turned out to be 0.38 kcal/mol.

In the case of GTTGGCACGTGTCGAA, the “relative binding free energy” value came to 0.05 kcal/mol.

With GCGTCCACGTGTTGTT, the “relative binding free energy” value turned out to be 0.1 kcal/mol.

As to TCTAACACGTGGGTAG, the “relative binding free energy” value was -0.09 kcal/mol.

Take GCTGTCACGTGTGGCG: the “relative binding free energy” value is 0.18 kcal/mol.

On to GGGGTCACGTGTTAAG, for which the “relative binding free energy” value stood at 0.18 kcal/mol.

ATAAGCACGTGGTCGT: the “relative binding free energy” value is -0.28 kcal/mol.

On to CTGTGCACGTGGAATT, for which the “relative binding free energy” value stood at 0.06 kcal/mol.

Regarding GTGAGCACGTGGGTTG, the “relative binding free energy” value was -0.16 kcal/mol.

For TCATTCACGTGTATGT, the “relative binding free energy” value came out at 0.12 kcal/mol.

On to TGAAACACGTGGTCTT, for which the “relative binding free energy” value was 0.09 kcal/mol.

Take AGGCTCACGTGCAGGG: the “relative binding free energy” value stood at 0.21 kcal/mol.

Turning to AGGTTCACGTGTCATG, the “relative binding free energy” value came out at 0.24 kcal/mol.

Consider TTTATCACGTGCTTAT, for which the “relative binding free energy” value is -0.08 kcal/mol.

TTGTACACGTGTTTAA: the “relative binding free energy” value was -0.08 kcal/mol.

For the sequence TATATCACGTGCTGAT, the “relative binding free energy” value was 0.09 kcal/mol.

In the case of AAGTTCACGTGGGTCA, the “relative binding free energy” value is -0.02 kcal/mol.

Consider TCGTACACGTGTTAGT, for which the “relative binding free energy” value was determined as 0.07 kcal/mol.

As for TGAGGCACGTGGCAGT, the “relative binding free energy” value is -0.3 kcal/mol.

Turning to TGCGTCACGTGTAATT, the “relative binding free energy” value came to 0.21 kcal/mol.

With CTCTGCACGTGTGTTT, the “relative binding free energy” value stood at 0.04 kcal/mol.

On to GATGTCACGTGGTGTG, for which the “relative binding free energy” value is 0.07 kcal/mol.

As for TTGTGCACGTGGTGCG, the “relative binding free energy” value was -0.07 kcal/mol.

In the case of GGGAGCACGTGGGGAA, the “relative binding free energy” value was -0.07 kcal/mol.

Turning to CTAGGCACGTGGTAAT, the “relative binding free energy” value was -0.17 kcal/mol.

ATTGGCACGTGGTCTG: the “relative binding free energy” value is -0.22 kcal/mol.

As to CTGTACACGTGGTCGG, the “relative binding free energy” value is -0.05 kcal/mol.

As to GTCGACACGTGTATGT, the “relative binding free energy” value was 0.08 kcal/mol.

On to CTTGGCACGTGTCGTG, for which the “relative binding free energy” value is -0.04 kcal/mol.

In the case of TGTGTCACGTGCTTAG, the “relative binding free energy” value stood at 0.04 kcal/mol.

Take AGAGGCACGTGGCGTA: the “relative binding free energy” value was -0.16 kcal/mol.

Turning to TGTTTCACGTGCGCTG, the “relative binding free energy” value was found to be 0.23 kcal/mol.

In the case of TTAATCACGTGCATGT, the “relative binding free energy” value came out at 0.05 kcal/mol.

For ATTGTCACGTGTGCAG, the “relative binding free energy” value came out at 0 kcal/mol.

As for GTTTTCACGTGGTTAC, the “relative binding free energy” value is 0.36 kcal/mol.

As to AAGTACACGTGGTTGT, the “relative binding free energy” value was -0.02 kcal/mol.

For the sequence TGGTGCACGTGGATAT, the “relative binding free energy” value was -0.03 kcal/mol.

Regarding TGCTTCACGTGTTTGC, the “relative binding free energy” value was 0.24 kcal/mol.

On to TGGGACACGTGGGTGA, for which the “relative binding free energy” value was -0.07 kcal/mol.

Consider TGTACCACGTGGTAAG, for which the “relative binding free energy” value is -0.07 kcal/mol.

For GTGATCACGTGAGGGA, the “relative binding free energy” value came out at 0.33 kcal/mol.

Take ATTTGCACGTGAATAC: the “relative binding free energy” value worked out at 0.36 kcal/mol.

In the case of TGACGCACGTGAGGTT, the “relative binding free energy” value turned out to be 0.18 kcal/mol.

On to AGTAGCACGTGAATGT, for which the “relative binding free energy” value was 0.17 kcal/mol.

Take CTGGTCACGTGGTAGA: the “relative binding free energy” value was determined as 0.06 kcal/mol.

Take AAATGCACGTGGTATT: the “relative binding free energy” value is -0.1 kcal/mol.

For TAGATCACGTGGTTTC, the “relative binding free energy” value stood at 0.21 kcal/mol.

As to CGAGTCACGTGAGGGG, the “relative binding free energy” value came to 0.37 kcal/mol.

Take GAATGCACGTGTCGGT: the “relative binding free energy” value was 0.14 kcal/mol.
